172 sequences from article PMC10668032 can be followed below.

This is one part of the list. At the low end of the ranking, values are background and their order means little.

The target of the assay is SIX1-Q177R homeodomain (UniProt Q15475). Put plainly: universal protein binding microarray. The note with it: Universal all-10-mer PBM (8x60K, AMADID 030236), 300 nM GST-tagged protein, Alexa Fluor 488 anti-GST; buffer, salt, pH and temperature not stated; high values mean tight binding; most listed sequences are background and not binding sites; double strand, one strand shown.
Regarding GAGTCGAC, the binding signal was 0.212 E-score.
To ATGCGACC belongs -0.0999 E-score.
To TCCCCCCA belongs -0.12 E-score; to ACACGGAC, 0.367 E-score.
To ACGTGACA belongs 0.126 E-score; to CGAGGGTC, 0.107 E-score; to AATGGTGG, -0.0246 E-score.
On to GGTACACC, for which the binding signal is 0.485 E-score.
To ATCGAGCG belongs -0.00387 E-score; to CGACTGCG, -0.139 E-score; to ACTGCCGC, -0.0696 E-score.
In the case of ACTGCTAT, the binding signal is -0.07 E-score.
Then CCTCTCGC, with 0.0448 E-score; and AGGGCGAA, with -0.205 E-score.
Then ACCCGAAC, with 0.173 E-score.
Then AGCTCTAG, with -0.133 E-score; and GAGACCTA, with -0.277 E-score.
Take ATCTTCAG: the binding signal is -0.182 E-score.
To CGAAGCGC belongs -0.0557 E-score; to CTCATAAA, -0.146 E-score; to TCCCCTAA, 0.172 E-score.
Then GTTTGCTA, with 0.0544 E-score.
Then GCGTCCAC, with -0.0851 E-score; and ACTAAACG, with 0.0995 E-score; and CTGCACCC, with 0.209 E-score.
On to ATTGCAGC, for which the binding signal was -0.128 E-score.
To AACAAGTA belongs -0.187 E-score; to AATTAGTA, 0.0282 E-score; to AGGCCTGA, -0.149 E-score.
Turning to ATATGTCA, the binding signal is -0.233 E-score.
To ATCTGGAC belongs -0.134 E-score; to CAAATGAG, -0.143 E-score.
To AGGTTCGA belongs 0.038 E-score; to GCTGCACA, 0.0436 E-score; to CAAACTCC, -0.173 E-score.
To TGGAGACA belongs 0.12 E-score; to CATTTAGC, -0.019 E-score; to CGCCCAGC, 0.161 E-score.
Take ACCCGGCG: the binding signal was 0.235 E-score.
To ACAACCCT belongs 0.134 E-score; to CCCAAAAG, -0.0822 E-score.
With GATGATGC, the binding signal was -0.156 E-score.
To AGAAGTTA belongs -0.0957 E-score.
Then AATGTGAA, with -0.24 E-score; and CAGATTCA, with -0.14 E-score; and CCTAACAA, with -0.0714 E-score.
In the case of ATACGTAT, the binding signal was determined as 0.0181 E-score.
Then AAACCGCT, with -0.0952 E-score.
In the case of GATTCCAA, the binding signal is 0.023 E-score.
For the sequence ATTAACCA, the binding signal is -0.167 E-score.
Then CGTGCCTC, with -0.158 E-score; and ATCTCCAT, with -0.00556 E-score.
Then AAGAGGGC, with -0.156 E-score.
As to GTTGCCTA, the binding signal was -0.12 E-score.
In the case of GCGGACAC, the binding signal came out at 0.406 E-score.
To TAAAATAA belongs -0.0356 E-score.
Then CCCAGATA, with 0.0386 E-score.
Then CGTACACC, with 0.483 E-score; and ATACGGGG, with 0.171 E-score; and ACGGCCCC, with -0.229 E-score.
In the case of GATATAGC, the binding signal was -0.0754 E-score.
Then CTAGAGGC, with -0.186 E-score; and AGTCTTCC, with -0.183 E-score; and GCACGTTA, with 0.0329 E-score.
Then GCGATCAA, with -0.0272 E-score.
To CATGGATC belongs -0.0404 E-score; to GCAGTGCC, -0.179 E-score.
As to AATATGGC, the binding signal was -0.174 E-score.
Turning to AGGACCAG, the binding signal is -0.194 E-score.
As for GGCCAGAA, the binding signal is -0.0561 E-score.
To ATAACTAA belongs 0.0971 E-score; to GGCATGCC, -0.206 E-score; to TCTGCTAA, -0.223 E-score.
Then AGGGTGCC, with 0.0895 E-score; and CTGTCACC, with -0.0158 E-score.
To CGACCAGC belongs -0.0689 E-score; to AATGCGGG, -0.0794 E-score.
For ACCTTCAT, the binding signal was 0.00864 E-score.
As to ATCGAAGC, the binding signal is -0.0597 E-score.
Then CTCAGGAC, with -0.132 E-score.
As to CGCCGGGA, the binding signal was -0.0506 E-score.
Then GGGAAATA, with -0.205 E-score; and GCGTACCC, with 0.237 E-score; and ACGGGCAA, with -0.0223 E-score.
To ACCTACCT belongs 0.0857 E-score; to CGCAGCAA, -0.152 E-score; to CCGCACCG, 0.132 E-score.
To ACTGGTGG belongs 0.0343 E-score.
In the case of AAGACTAT, the binding signal was -0.132 E-score.
To ACTACTCT belongs 0.0953 E-score; to GCCGGGAC, -0.0849 E-score.
Then ACCTCACT, with 0.0834 E-score; and AAATCGCG, with -0.158 E-score; and ACGGGGTG, with 0.338 E-score.
Take TACTCCGA: the binding signal was found to be 0.211 E-score.
Then CGTTCTTC, with -0.126 E-score; and CCCTAAGA, with 0.276 E-score; and CCGGCAAA, with 0.0012 E-score.
To GCTCTAAC belongs 0.0115 E-score.
Then CTGTCGGA, with -0.0989 E-score; and CTATGCAG, with 0.0387 E-score.
As to ACAACTAC, the binding signal came to 0.0708 E-score.
To AGTATTTA belongs 0.00369 E-score; to ATCGCGCC, -0.136 E-score; to CCACTCGC, 0.222 E-score.
Then GTTTATAA, with 0.0856 E-score.
Then GCTAGTGA, with -0.145 E-score; and GTTCCACA, with 0.128 E-score; and GAGACCCA, with -0.153 E-score.
On to ATAATAAC, for which the binding signal is -0.0614 E-score.
Take GACCGGCA: the binding signal was -0.0159 E-score.
To ACAGGGAA belongs -0.0935 E-score; to ACGTAAGG, -0.0875 E-score; to AGGGGAGG, 0.126 E-score.
On to AGAGGCAG, for which the binding signal is -0.124 E-score.
Then ACACCGTC, with 0.459 E-score.
Consider ATGAAGGA, for which the binding signal amounted to 0.0681 E-score.
To CCTCATTA belongs 0.0548 E-score; to TAAGTTAA, -0.0429 E-score.
Then TAGCCTCA, with -0.0394 E-score; and ACAAAACC, with -0.0304 E-score.
To CCCAAGAG belongs -0.0214 E-score; to AGCCGCGA, 0.0221 E-score; to AACATTGT, -0.209 E-score.
On to AACCCTAT, for which the binding signal came to 0.0221 E-score.
ACCGATGC: the binding signal was -0.0302 E-score.
To AGTGCAAT belongs 0.0431 E-score; to AGCTACAT, -0.0103 E-score.
Then AGTGACAG, with -0.272 E-score; and CACTTTCG, with 0.116 E-score; and GCAGACAA, with -0.175 E-score.
CCGATGCA: the binding signal came to 0.0461 E-score.
To GACTTGCA belongs -0.162 E-score; to ATAGAAAC, -0.0877 E-score.
To GGTCCCCA belongs -0.112 E-score.
To GGCTGACA belongs 0.254 E-score.
With GACGAAAA, the binding signal was -0.206 E-score.
Then AATTCAGA, with -0.17 E-score; and TCTCGGCA, with -0.0762 E-score; and TCTCACAA, with -0.141 E-score.
To CTCAAAGC belongs -0.253 E-score; to ATTCCTGA, 0.0148 E-score; to ACACCAAG, 0.455 E-score.
To AGAATCTG belongs -0.186 E-score.
With AAAAGAAG, the binding signal was -0.102 E-score.
To GACGGCTC belongs -0.0832 E-score; to GAATATTC, -0.148 E-score; to GGGTAGAC, 0.0222 E-score.
To ACCAGGAA belongs -0.208 E-score; to CTCCTGAC, 0.148 E-score.
Then ACGCGCGG, with 0.0107 E-score; and GTCAGAAA, with -0.109 E-score.
For the sequence CTCCCGTC, the binding signal was 0.00376 E-score.
To CGAGCTCG belongs 0.0221 E-score; to CTACATCA, -0.0239 E-score; to AGAGAAGC, -0.217 E-score.
Then ATACTCTG, with 0.0991 E-score; and AAGCGAAC, with -0.106 E-score; and CATCCTCG, with -0.0593 E-score.
Take ACTCTACC: the binding signal stood at 0.151 E-score.
On to CTGCCAAA, for which the binding signal is -0.183 E-score.
Then ACCAGCCC, with 0.104 E-score; and CTGTTAGA, with -0.0247 E-score; and GTGACTAA, with -0.25 E-score.
To CAACAGGC belongs -0.25 E-score; to GCTGGCAA, -0.196 E-score.
Then AAGCAGTG, with 0.225 E-score.
As for AATTCACA, the binding signal is -0.0493 E-score.
On to ATTTCTGC, for which the binding signal is -0.326 E-score.
Then GGATCCAC, with 0.103 E-score; and ACAAATAC, with -0.0491 E-score; and GATGCGGA, with 0.138 E-score.
